The text below walks through data of patent US20160340422A1.

In the assay the target is B7 molecule on Raji cells. In words: flow cytometry on Raji cells, sample at 0.5 nM, FITC anti-mouse IgG. For orientation: In flow cytometry, cells or beads pass a laser one at a time.

B1: Bifunctional fusion protein E (protein)
heavy: QVQLKESGPGLVQPSQTLSLTCTVSGFSLTNYYVHWVRQPPGKGLEWMGGVWNDGDTSYNSVLRSRLSITRDTSKSQVLLKMSSLQTEDTATYYCAREGREGFVGYYVMDAWGPGASVTVSSAKTTAPSVYPLAPVCGDTTGSSVTLGCLVKGYFPEPVTLTWNSGSLSSGVHTFPAVLQSDLYTLSSSVTVTSSTWPSQSITCNVAHPASSTKVDKKIEPRGPTIKPCPPCKCPAPNLLGGPSVFIFPPKIKDVLMISLSPIVTCVVVDVSEDDPDVQISWFVNNVEVHTAQTQTHREDYNSTLRVVSALPIQHQDWMSGKEFKCKVNNKDLPAPIERTISKPKGSVRAPQVYVLPPPEEEMTKKQVTLTCMVTDFMPEDIYVEWTNNGKTELNYKNTEPVLDSDGSYFMYSKLRVEKKNWVERNSYSCSVVHEGLHNHHTTKSFSRTPGK
light: DIQMTQSPSFLSASVGERVTLSCKASQNINKYLDWFQQKLGEAPKLLIYNADNLHTGIPSRFSGSGSFSDFILTISSLQPEDDATYFCLQRESWPYTFGAGTKLELKRADAAPTVSIFPPSSEQLTSGGASVVCFLNNFYPKDINVKWKIDGSERQNGVLNSWTDQDSKDSTYSMSSTLTLTKDEYERHNSYTCEATHKTSTSPIVKSFNRNECGGGGSGGGGSGGGGSGGGGSGGG[about 120 residues skipped]
In turn, B1 registered a Mean fluorescence intensity (MFI) of 3 MFI.

B2: Bifunctional fusion protein D (protein)
heavy: QVQLKESGPGLVQPSQTLSLTCTVSGFSLTNYYVHWVRQPPGKGLEWMGGVWNDGDTSYNSVLRSRLSITRDTSKSQVLLKMSSLQTEDTATYYCAREGREGFVGYYVMDAWGPGASVTVSSAKTTAPSVYPLAPVCGDTTGSSVTLGCLVKGYFPEPVTLTWNSGSLSSGVHTFPAVLQSDLYTLSSSVTVTSSTWPSQSITCNVAHPASSTKVDKKIEPRGPTIKPCPPCKCPAPNLLGGPSVFIFPPKIKDVLMISLSPIVTCVVVDVSEDDPDVQISWFVNNVEVHTAQTQTHREDYNSTLRVVSALPIQHQDWMSGKEFKCKVNNKDLPAPIERTISKPKGSVRAPQVYVLPPPEEEMTKKQVTLTCMVTDFMPEDIYVEWTNNGKTELNYKNTEPVLDSDGSYFMYSKLRVEKKNWVERNSYSCSVVHEGLHNHHTTKSFSRTPGKGGGGSGGGGSGGGGSGGGGSGGG[about 120 residues skipped]
light: DIQMTQSPSFLSASVGERVTLSCKASQNINKYLDWFQQKLGEAPKLLIYNADNLHTGIPSRFSGSGSFSDFILTISSLQPEDDATYFCLQRESWPYTFGAGTKLELKRADAAPTVSIFPPSSEQLTSGGASVVCFLNNFYPKDINVKWKIDGSERQNGVLNSWTDQDSKDSTYSMSSTLTLTKDEYERHNSYTCEATHKTSTSPIVKSFNRNEC
Molecule B2 displayed a Mean fluorescence intensity (MFI) of 9 MFI.
